The full ranking holds about 33,000 sequences; the median of “E-score (-0.5 to 0.5)” is about -0.036, and the highest 2% start at about 0.37. The list shows a part of the results.
Target: T1, Yer064c (UniProt P40041)
T1 sequence: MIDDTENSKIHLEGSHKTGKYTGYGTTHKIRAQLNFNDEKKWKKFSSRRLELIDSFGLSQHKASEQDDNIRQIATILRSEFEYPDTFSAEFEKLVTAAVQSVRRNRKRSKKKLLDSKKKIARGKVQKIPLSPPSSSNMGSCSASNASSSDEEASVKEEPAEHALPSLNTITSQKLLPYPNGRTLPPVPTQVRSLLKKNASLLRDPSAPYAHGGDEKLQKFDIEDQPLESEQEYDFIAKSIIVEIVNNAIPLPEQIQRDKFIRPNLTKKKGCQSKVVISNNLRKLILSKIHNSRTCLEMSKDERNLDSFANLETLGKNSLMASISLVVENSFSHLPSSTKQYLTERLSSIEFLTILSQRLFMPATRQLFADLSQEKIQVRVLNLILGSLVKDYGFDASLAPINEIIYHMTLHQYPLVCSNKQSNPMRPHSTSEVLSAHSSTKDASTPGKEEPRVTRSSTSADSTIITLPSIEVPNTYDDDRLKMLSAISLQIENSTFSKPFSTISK
Assay: PBM E-score (8-mer binding enrichment) (E-score (-0.5 to 0.5)); higher = stronger / more preferred TF binding; most listed sequences are background and not binding sites
Details: protein concentration: 200 nM; construct: GST-full length
How it was run: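 Yeast transcription factors carrying a GST tag, as full-length proteins or DNA-binding domains, were produced by PURExpress in vitro transcription/translation. About 100-200 nM protein was applied to universal all-10-mer Agilent arrays, double-stranded by primer extension on fresh or once-stripped slides. Bound protein was detected with fluorescent anti-GST, and scans were normalised with masliner. The Universal PBM Analysis Suite gave each ungapped eight-base word, pooled with its reverse complement, an E-score, a modified Wilcoxon-Mann-Whitney statistic.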

Sequence	PBM E-score
AAACAATT	0.199
TACGCCCA	-0.128
CATCCTTC	-0.0835
CGGTATAG	-0.0513
ACAAACCC	-0.0685
CACCGGAG	-0.133
AGGGGAGC	-0.142
AACAATAT	0.16
GGACGGCC	-0.188
CTAATTAA	0.0944
CAGCTCGA	-0.0604
AGTCGCCG	0.36
AAGTTGTC	-0.133
GAAATCAC	0.347
AAAATTCT	-0.187
CGGGGATC	-0.226
CTGTTCCC	-0.262
AGTACACG	0.0619
GACGCGTA	-0.15
AGAAACGG	-0.193
GCTGATTA	0.392
CATACTAC	-0.0608
GGTAACAA	0.0981
TACCTGCA	-0.163
ACCCCGCT	-0.208

Sequence	PBM E-score
CACTCGGA	0.0864
GAGAAAGC	-0.136
CCAGTTGA	0.118
GATAGATC	-0.00669
AACCACGT	0.0047
ACTCCTGA	0.282
ATGTGGTC	-0.0215
TAAGTGCA	0.0184
AATCATAA	0.418
ACCCAAAT	-0.00743
GATAGGGA	-0.227
AGACACTA	0.046
CCGCTACC	-0.245
ATTCCAAG	-0.0431
ATGTCCCA	-0.199
GGATGCTA	-0.101
CGTTGGGC	-0.14
GAACTCTA	0.043
GGAGCGAC	0.103
AGGCTGAT	0.239
GCTCCCCC	-0.183
CCAAAAAA	0.0835
ACCACATA	0.0407
GTGATCTA	0.124
CATACGTA	0.0653

Sequence	PBM E-score
ACGCATCG	-0.205
ATAACTCA	0.271
CTCTTTAA	0.0515
GAACGTAC	0.0263
TCAATTAA	0.205
GGGCATAA	-0.125
ACTCTTGA	0.15
AGGGTAAG	0.164
TAAACGCA	-0.0223
AGATGAAT	0.199
CCGGACTA	0.103
TCCCACGA	0.117
GCTAGGTA	-0.126
AGGCTTAC	-0.215
AAAAACGT	0.106
CGGCATAC	-0.116
AAGTTGTG	0.0178
CACACGAC	0.112
ATTACACG	0.00797
AACAAATA	-0.0688
GAACTTCA	-0.0911
GGTGTCAA	-0.00117
AGTGCCGA	0.0247
GAGATAGC	-0.259
CCCGCTAG	-0.224

Sequence	PBM E-score
CAGAGTTC	0.0645
GCTAAAAC	-0.0991
CGCCTCAC	-0.133
TAGCGTAA	0.0156
AGGACGGG	-0.261
CTAGCCTA	0.0505
CCTGACGA	0.115
CGCCCTTC	-0.212
GGTACAAC	-0.00175
AGTATTGC	0.0131
CTCTGCGC	-0.122
CCCTCTCG	-0.226
CCAGGCAC	-0.0375
GAATTTCA	-0.0886
CTCATTGC	0.03
AGCCTCCA	-0.245
ATTAGATA	0.137
TTCGGAAA	-0.147
CAACCAAC	-0.0733
GGGTCAAC	0.189
TGAGGGCA	-0.256
ACATCTAC	0.0328
GGGTTCGA	-0.171
ATTCCTTG	-0.00454
TCCTACCA	-0.265

Sequence	PBM E-score
GCAGTTAA	0.0487
GAAGGAAA	-0.125
AATATCCC	-0.178
ATTAGGGC	-0.0516
ATTGAACC	0.14
CAAATGCG	0.0296
CATCGTTC	0.115
AACGTCAG	-0.141
AGCCGCAC	-0.0979
AACGCTGT	-0.242
GATCCAGC	-0.245
AAAGAAAC	0.0456
ATTCTGGC	-0.0543
AAAAATCC	-0.168
ACGTGAAG	-0.0713
ATGAGCAC	0.0261
CAGCGAGA	0.018
CCACGTAC	-0.02
AGCTATAA	-0.0153
CGGGGAAG	-0.107
CTTTTTCA	-0.0235
ATCGTTCA	0.049
AGATATAA	-0.0278
CCAAGACC	-0.297
CTAAAGAC	0.0541

Sequence	PBM E-score
CCCTAAGA	-0.144
AACCTATT	-0.135
AGGGAACG	-0.369
ACTGATTG	0.202
TCAGTGAA	0.224
ACCTGGCG	-0.277
ATCCACCC	-0.096
CCATGATC	0.0488
CAACTGCC	-0.0195
GGCCTAAC	-0.166
GCTAGGGA	-0.312
CTTTGGCC	-0.102
CGTTTGGA	-0.0503
CACTACAC	-0.0592
TAACCGGA	-0.104
AAGCTGCG	-0.289
CGGGCATA	-0.155
TCAACCAA	0.0858
AATGAGAC	0.257
GTGGTTCA	0.257
TGATGTAA	0.0177
ACCTTGAT	-0.0676
GAGTAAAC	0.0375
AGCTCGGG	-0.0421
GTTAGAAC	0.0312

Sequence	PBM E-score
ATTACGTA	0.0567
GCGATGTA	-0.145
AATCAGTA	0.234
AATGCTTC	-0.162
AGTACCAG	0.127
AGTCTGTG	0.123
GGACGTGA	0.0222
ACCTCTGC	-0.164
AGCATTCC	-0.176
CAAACCTA	-0.174
CTTTTTTA	0.141
CAACATAG	0.00635
TTACCGAA	0.0922
ACCTACTA	-0.0168
CTATCACA	0.021
GCTTACCA	-0.0173
ACTGTGAG	0.149
ATTATGCG	0.2
ATAGGATC	-0.0811
TGATATCA	-0.0616
GCGAACAA	0.0591
AATGTGGG	-0.00891
